From the supplement of paper PMC9174493
The other results are listed elsewhere or left out. Single values of this set are uncertain. Values with irradiation are relative to irradiated vehicle.

Key:
A549-Dual [1] = assay: NF-kB reporter (SEAP) activity, viability-corrected, relative to vehicle (fold change vs vehicle); higher = more activation of STING-IRF / NF-kB immune response reporter; settings: 10 µM
A549-Dual [2] = assay: ISRE reporter (Lucia luciferase) activity, viability-corrected, relative to vehicle (fold change vs vehicle); higher = more activation of STING-IRF / NF-kB immune response reporter; settings: 10 µM
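Throughout, for NF-kB reporter (SEAP) activity, viability-corrected, relative to vehicle: viability correction based on the alamar blue assay, with concentrations leaving 10% survival or less dropped.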

Row | SMILES | NF-kB reporter (A549-Dual [1]; irradiation: 8 Gy/4 fr) | NF-kB reporter (A549-Dual [1]; irradiation: none) | ISRE reporter (A549-Dual [2]; irradiation: 8 Gy/4 fr) | ISRE reporter (A549-Dual [2]; irradiation: none)
1 | CNCC(O)c1ccc(O)c(O)c1.Cl (configuration not stated) [Epinephrine HCl] | 0.925 | 1.31 | 0.857 | 0.643
2 | CC(=O)N(CC(O)CN(C(C)=O)c1c(I)c(C(=O)NCC(O)CO)c(I)c(C(=O)NCC(O)CO)c1I)c1c(I)c(C(=O)NCC(O)CO)c(I)c(C(=O)NCC(O)CO)c1I (configuration not stated) [Iodixanol] | 0.992 | 0.798 | 0.609 | 0.522
3 | NCC(O)c1ccc(O)c(O)c1.O.O=C(O)C(O)C(O)C(=O)O (configuration not stated) [Noradrenaline bitartrate monohydrate] | 1.16 | 1.3 | 1.06 | 1.2
4 | CCCOC(C(=O)OC1CCN(C)CC1)(c1ccccc1)c1ccccc1.Cl [Propiverine hydrochloride] | 1.44 | 0.714 | 0.84 | 0.597
5 | CC1=C(C(=O)O)N2C(=O)C(NC(=O)C(N)C3=CCC=CC3)C2SC1.O (configuration not stated) [Cephradine monohydrate] | 0.774 | 1.08 | 0.705 | 0.827
6 | Cl.c1ccc(CC2=NCCN2)cc1 [Tolazoline HCl] | 0.872 | 0.864 | 0.663 | 0.471
7 | CC(=O)NC(CCC(N)=O)C(=O)O (configuration not stated) [Aceglutamide] | 0.659 | 2.14 | 0.772 | 0.92
8 | Oc1c(I)cc(I)c2cccnc12 [Diiodohydroxyquinoline] | 0.785 | 0.99 | 0.796 | 0.789
9 | O=P(O)(O)OC1C(OP(=O)(O)O)C(OP(=O)(O)O)C(OP(=O)(O)O)C(OP(=O)(O)O)C1OP(=O)(O)O (configuration not stated) [Sodium phytate hydrate] | 0.789 | 0.892 | 0.773 | 0.712
10 | COC(=O)/C=C/c1ccccc1 [Methyl cinnamate] | 0.9 | 0.521 | 0.786 | 0.536
11 | CNCCCN1c2ccccc2CCc2ccccc21.Cl [Desipramine Hydrochloride] | 0.745 | 1.3 | 0.545 | 0.723
12 | NC(Cc1cc(I)c(Oc2ccc(O)c(I)c2)c(I)c1)C(=O)[O-].[Na+] (configuration not stated) [Liothyronine Sodium] | 0.753 | 1.22 | 0.517 | 0.664
13 | CO/N=C(\C(=O)N[C@@H]1C(=O)N2C(C(=O)[O-])=C(CSc3nc(C)c(CC(=O)[O-])s3)CS[C@H]12)c1csc(N)n1.[Na+].[Na+] [Cefodizime Sodium] | 0.892 | 0.935 | 0.854 | 0.689
14 | CN(C)CCN(Cc1ccccc1)c1ccccn1.Cl [Tripelennamine HCl] | 0.771 | 1.23 | 0.662 | 0.705
15 | Clc1ccc2c(c1)CCc1cccnc1C2=C1CCNCC1 [Desloratadine] | 0.536 | 0.93 | 0.657 | 1.12
16 | O=C(O)Cc1cc(I)c(Oc2ccc(O)c(I)c2)c(I)c1 [Tiratricol] | 0.749 | 1.12 | 0.709 | 1.05
17 | CN(C)CCC=C1c2ccccc2CCc2ccccc21.Cl [Amitriptyline HCl] | 0.808 | 0.827 | 1.06 | 1.17
18 | CCCCCCCCCCCCCCCCO [1-Hexadecanol] | 1.36 | 3.27 | 1.25 | 4.79
19 | NCC(=O)[O-].NCC(=O)[O-].[Fe+2] [Ferrous Bisglycinate] | 0.848 | 0.898 | 0.764 | 0.834
20 | C#CC1(O)CCC2C3CCC4=CC(=O)CCC4C3CCC21CC (configuration not stated) [Levonorgestrel] | 0.735 | 0.775 | 0.607 | 0.549
21 | CC1CN(CC(Cc2ccccc2)C(=O)NCC(=O)O)CCC1(C)c1cccc(O)c1 (configuration not stated) [Alvimopan] | 0.824 | 1.12 | 0.742 | 0.69
22 | CC(=O)OC(C)C[N+](C)(C)C.[Cl-] (configuration not stated) [Methacholine chloride] | 0.776 | 1.31 | 0.934 | 0.96
23 | CC(Cn1cnc2c(N)ncnc21)OCP(=O)(O)O (configuration not stated) [Tenofovir] | 0.555 | 0.958 | 0.574 | 0.754
24 | CCCN1CCCCC1C(=O)Nc1c(C)cccc1C (configuration not stated) [Ropivacaine] | 0.704 | 1.21 | 0.69 | 0.92
25 | Cc1ccc(C(C)C)cc1O [Carvacrol] | 0.756 | 0.687 | 0.684 | 0.566
26 | CN(C(=O)CN(CCO)CC(=O)N(C)C(C)(C)Cc1ccccc1)C(C)(C)Cc1ccccc1 [Oxethazaine] | 0.391 | 0.447 | 0.282 | 0.316
27 | CCN(CC)CC#CCOC(=O)C(O)(c1ccccc1)C1CCCCC1 (configuration not stated) [Oxybutynin] | 0.68 | 1.3 | 0.524 | 0.696
28 | C=C1CCC(O)C/C1=C/C=C1\CCCC2(C)C1CCC2C(C)/C=C/C(C)C(C)C (configuration not stated) [Vitamin D2] | 0.443 | 0.994 | 0.282 | 0.642
